# Laboratory results reported in ChEMBL document CHEMBL5606458, “ASAP - ZIKV NS2B-NS3 protease fluorescence single point” (2024).
# The campaign covered roughly 2,700 compounds. About 160 (5.9%) showed an effect of 50% or more. This is one part of the list.
# Target: Nonstructural protein 3 (Zika virus) (UniProt A0A024AXB9)
# [1] = PRVABC59, Concentration 50.0 uM, Number of replicates 1.0
# [2] = PRVABC59, Concentration 15.0 uM, Number of replicates 1.0
# Sequence of UniProt A0A024AXB9 (A0A024AXB9 as listed by the source): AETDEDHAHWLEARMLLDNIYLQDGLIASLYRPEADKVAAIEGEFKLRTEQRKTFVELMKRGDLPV
smiles,measurement,setting,value
Cc1cc(Br)cc(C)c1NC(=O)C1CCN(c2ccc(C=O)cc2)CC1,inhibition,[1],20.8%
O=C(NCc1ccc(S(F)(F)(F)(F)F)cc1)c1cc(Cl)ccc1NS(=O)(=O)c1ccc(Oc2ccccc2Cl)cc1,inhibition,[2],27.7%
O=Cc1ccc(N2CCC(C(=O)Nc3ncc(C(F)(F)F)cc3Cl)CC2)cc1,inhibition,[1],20.3%
Cc1cc(CO)c2cccc(Cc3cccc(C(=O)N4CC[C@@H](CO)C4)c3)c2n1,inhibition,"PRVABC59, Concentration 49.95 uM, Number of replicates 2.0, Standard deviation 1.594011680945781 %",-6.14%
same,inhibition,"PRVABC59, Concentration 99.9 uM, Number of replicates 2.0, Standard deviation 1.5520642713220405 %",3.44%
O=Cc1ccc(N2CCC(C(=O)Nc3ncccc3C(F)(F)F)CC2)cc1,inhibition,[1],22%
COc1cc(CS(=O)(=O)Cc2c(F)cccc2Cl)nc(N2CCNCC2)n1,inhibition,"PRVABC59, Concentration 50.0 uM, Number of replicates 2.0, Standard deviation 0.7895335993586137 %",-0.455%
same,inhibition,"PRVABC59, Concentration 100.0 uM, Number of replicates 2.0, Standard deviation 1.3970643047419518 %",1.93%
same,inhibition,"PRVABC59, Concentration 200.0 uM, Number of replicates 2.0, Standard deviation 1.0663830394580245 %",7.23%
COc1cc(NC(=O)C2CCN(c3ccc(C=O)cc3)CC2)nc(OC)n1,inhibition,[1],18.8%
Cc1cc(CO)c2cccc(C[C@H](NC(=O)c3cccc(Cn4cncn4)c3)C(=O)O)c2n1,inhibition,"PRVABC59, Concentration 49.95 uM, Number of replicates 2.0, Standard deviation 0.9032659691763744 %",-5.49%
same,inhibition,"PRVABC59, Concentration 99.9 uM, Number of replicates 2.0, Standard deviation 1.6710421272699896 %",-4.41%
CN1CCN(c2ccc(CNCc3cccc(S(N)(=O)=O)c3)cc2)CC1,inhibition,"PRVABC59, Concentration 49.5 uM, Number of replicates 2.0, Standard deviation 1.5154223069888513 %",-8.74%
same,inhibition,"PRVABC59, Concentration 99.01 uM, Number of replicates 2.0, Standard deviation 2.659720370827631 %",-6.5%
same,inhibition,"PRVABC59, Concentration 198.0 uM, Number of replicates 2.0, Standard deviation 3.3033882213977632 %",-4.79%
CN(C)Cc1cccc(CNC(=O)c2cc(Cl)ccc2NS(=O)(=O)c2ccc(Oc3ccccc3Cl)cc2)c1,inhibition,[2],-1.32%
Cc1cc(CO)c2cccc(C[C@H](NC(=O)c3nc(-c4ccccc4)oc3C(F)(F)F)C(=O)O)c2n1,inhibition,"PRVABC59, Concentration 49.95 uM, Number of replicates 2.0, Standard deviation 1.6710421904902624 %",-1.46%
same,inhibition,"PRVABC59, Concentration 99.9 uM, Number of replicates 2.0, Standard deviation 1.5907517065071604 %",3.44%
Cc1ccc(S(N)(=O)=O)c(NCc2ccc(N3CCN(C)CC3)cc2)c1,inhibition,"PRVABC59, Concentration 49.5 uM, Number of replicates 2.0, Standard deviation 3.8136834235263835 %",-3.3%
same,inhibition,"PRVABC59, Concentration 99.01 uM, Number of replicates 2.0, Standard deviation 3.4522242113831334 %",-1.82%
same,inhibition,"PRVABC59, Concentration 198.0 uM, Number of replicates 2.0, Standard deviation 2.9941184474851785 %",2.12%
CN(CCO[Si](C)(C)C(C)(C)C)C(=O)C1CCN(c2ccc(C=O)cc2)CC1,inhibition,[1],22.6%
COc1ccc(Cl)c(NC(=O)C2CCN(c3ccc(C=O)cc3)CC2)c1,inhibition,[1],23.1%
O=C(Nc1cccc(B(O)O)c1)[C@H]1CCn2ccnc2C1,inhibition,"PRVABC59, Concentration 49.5 uM, Number of replicates 2.0, Standard deviation 2.866092203826981 %",1.78%
same,inhibition,"PRVABC59, Concentration 99.01 uM, Number of replicates 2.0, Standard deviation 0.5770227248937957 %",4.86%
same,inhibition,"PRVABC59, Concentration 198.0 uM, Number of replicates 2.0, Standard deviation 6.947525620811191 %",1.81%
COc1cc(F)c(CNC(=O)c2cc(Cl)ccc2NS(=O)(=O)c2ccc(Oc3ccccc3Cl)cc2)c(F)c1,inhibition,[2],28.3%
CC(C)(NC(=O)C1CCN(c2ccc(C=O)cc2)CC1)c1ccc(Cl)cc1,inhibition,"PRVABC59, Concentration 10.0 uM, Number of replicates 1.0",26.8%
COc1cc(-c2ccccc2C(=O)Nc2cnn(C)c2)ccn1,inhibition,"PRVABC59, Concentration 49.5 uM, Number of replicates 2.0, Standard deviation 2.0867366627203316 %",-1.92%
same,inhibition,"PRVABC59, Concentration 99.01 uM, Number of replicates 2.0, Standard deviation 1.9341815083818144 %",-2.85%
same,inhibition,"PRVABC59, Concentration 198.0 uM, Number of replicates 2.0, Standard deviation 1.1019385844771483 %",-1.54%
COc1cccc(CCNC(=O)c2cc(Cl)ccc2NS(=O)(=O)c2ccc(Oc3ccccc3Cl)cc2)c1OC,inhibition,[2],11.2%
Cc1cc(CO)c2cccc(Cc3ccccc3NC(=O)c3nc(C4CCNCC4)oc3C)c2n1,inhibition,"PRVABC59, Concentration 49.95 uM, Number of replicates 2.0, Standard deviation 3.130141914719793 %",12.3%
same,inhibition,"PRVABC59, Concentration 99.9 uM, Number of replicates 2.0, Standard deviation 0.6412983547468495 %",60.8%
CNC(=O)C1(C(=O)Nc2ccncc2C)CC1,inhibition,"PRVABC59, Concentration 49.5 uM, Number of replicates 2.0, Standard deviation 2.398978218165409 %",-4.23%
same,inhibition,"PRVABC59, Concentration 99.01 uM, Number of replicates 2.0, Standard deviation 2.773092021574055 %",-4.66%
same,inhibition,"PRVABC59, Concentration 198.0 uM, Number of replicates 2.0, Standard deviation 2.940069406004515 %",-4.14%
CN1[C@@H]2CCC[C@H]1C[C@@H](NC(=O)c1cc(Cl)ccc1NS(=O)(=O)c1ccc(Oc3ccccc3Cl)cc1)C2,inhibition,[2],1.62%
O=Cc1ccc(N2CCC(C(=O)Nc3nc(-c4ccc(Cl)c(Cl)c4)cs3)CC2)cc1,inhibition,[1],24.5%
O=C(c1cc(Cl)ccc1NS(=O)(=O)c1ccc(Oc2ccccc2Cl)cc1)N1CCC[C@H](C(F)(F)F)C1,inhibition,[2],20.5%
O=Cc1ccc(N2CCC(C(=O)N3CCc4c([nH]c5ccccc45)C3)CC2)cc1,inhibition,[1],3.67%
Cc1ncc(-c2ccccc2C(=O)Nc2cnn(C)c2)cn1,inhibition,"PRVABC59, Concentration 49.5 uM, Number of replicates 2.0, Standard deviation 6.167999932877102 %",-0.573%
same,inhibition,"PRVABC59, Concentration 99.01 uM, Number of replicates 2.0, Standard deviation 6.088749527748128 %",-0.405%
same,inhibition,"PRVABC59, Concentration 198.0 uM, Number of replicates 2.0, Standard deviation 6.674429131032364 %",3.47%
Cc1n[nH]c(CC(=O)N2CCC[C@H](n3cnc(C(N)=O)n3)C2)n1,inhibition,"PRVABC59, Concentration 49.5 uM, Number of replicates 2.0, Standard deviation 0.6580629802384823 %",-1.42%
same,inhibition,"PRVABC59, Concentration 99.01 uM, Number of replicates 2.0, Standard deviation 1.5259805983030124 %",-2.76%
same,inhibition,"PRVABC59, Concentration 198.0 uM, Number of replicates 2.0, Standard deviation 3.235908082358729 %",-3.44%
O=Cc1ccc(N2CCC(C(=O)Nc3ccc(C(F)(F)F)cn3)CC2)cc1,inhibition,[1],26.5%
NCc1cccc(NC(=O)[C@@H](CO)NC(=O)OCc2ccccc2)c1,inhibition,"PRVABC59, Concentration 49.5 uM, Number of replicates 2.0, Standard deviation 2.4696309190792523 %",0.466%
same,inhibition,"PRVABC59, Concentration 99.01 uM, Number of replicates 2.0, Standard deviation 4.203279186849219 %",2.84%
same,inhibition,"PRVABC59, Concentration 198.0 uM, Number of replicates 2.0, Standard deviation 4.3159482180208295 %",5.56%
Cc1c(C(=O)NCc2ccccn2)cc(C2CC2)n1C,inhibition,"PRVABC59, Concentration 49.5 uM, Number of replicates 2.0, Standard deviation 4.03936652104494 %",1.17%
same,inhibition,"PRVABC59, Concentration 99.01 uM, Number of replicates 2.0, Standard deviation 2.7270077301815765 %",0.686%
same,inhibition,"PRVABC59, Concentration 198.0 uM, Number of replicates 2.0, Standard deviation 2.0980329453519184 %",-2.6%
C[C@H](NC(=O)c1cc(Cl)ccc1NS(=O)(=O)c1ccc(Oc2ccccc2Cl)cc1)c1ccc(S(C)(=O)=O)cc1,inhibition,[2],31.5%
O=C(c1cc(Cl)ccc1NS(=O)(=O)c1ccc(Oc2ccccc2Cl)cc1)N1CCC(C(F)(F)F)CC1,inhibition,[2],17.2%
Cc1cc(CO)c2cccc(Nc3n[nH]c4ccc(C#N)cc34)c2n1,inhibition,"PRVABC59, Concentration 49.95 uM, Number of replicates 2.0, Standard deviation 0.8071707331030509 %",-1.25%
same,inhibition,"PRVABC59, Concentration 99.9 uM, Number of replicates 2.0, Standard deviation 1.6244310845648215 %",0.767%
O=C(NCc1cc(-c2ccc(Cl)cc2)on1)c1cc(Cl)ccc1NS(=O)(=O)c1ccc(Oc2ccccc2Cl)cc1,inhibition,[2],37.7%
CSc1cccc(CN(C)C(=O)C2CCN(c3ccc(C=O)cc3)CC2)c1,inhibition,[1],20.7%
O=Cc1ccc(N2CCC(C(=O)Nc3cccc(I)c3)CC2)cc1,inhibition,[1],23.2%
O=C1NCC[C@@H]1CNS(=O)(=O)c1ccc(Oc2ccccc2Cl)cc1,inhibition,"PRVABC59, Concentration 49.5 uM, Number of replicates 2.0, Standard deviation 1.553523437364336 %",-1.48%
same,inhibition,"PRVABC59, Concentration 99.01 uM, Number of replicates 2.0, Standard deviation 2.384182988464145 %",5.62%
same,inhibition,"PRVABC59, Concentration 198.0 uM, Number of replicates 2.0, Standard deviation 1.5662052133470215 %",10.8%
COc1cccc(C(=O)N2CCN(C(=O)C3CCN(c4ccc(C=O)cc4)CC3)CC2)c1,inhibition,[1],25.5%
C=CCN(C(=O)c1cc(Cl)ccc1NS(=O)(=O)c1ccc(Oc2ccccc2Cl)cc1)[C@H]1CCS(=O)(=O)C1,inhibition,[2],19.4%
Cc1cc(CO)c2cccc(NCC3CCOCC3)c2n1,inhibition,"PRVABC59, Concentration 49.95 uM, Number of replicates 2.0, Standard deviation 1.1048152333285624 %",-5.47%
Cc1cc(CO)c2cccc(N3CCC(C(=O)O)CC3)c2n1,inhibition,"PRVABC59, Concentration 49.95 uM, Number of replicates 2.0, Standard deviation 3.6180823862513867 %",-0.444%
same,inhibition,"PRVABC59, Concentration 99.9 uM, Number of replicates 2.0, Standard deviation 3.3671751163954844 %",6.38%
Cc1nn(CC(=O)Nc2nc(C)c(C)s2)cc1C1CCNCC1,inhibition,"PRVABC59, Concentration 49.5 uM, Number of replicates 2.0, Standard deviation 4.241738323092667 %",-4.55%
same,inhibition,"PRVABC59, Concentration 99.01 uM, Number of replicates 2.0, Standard deviation 4.904253485673597 %",-1.92%
same,inhibition,"PRVABC59, Concentration 198.0 uM, Number of replicates 2.0, Standard deviation 3.099258305711253 %",0.621%
